This assay deals with Cytochrome P450 2D6 (Homo sapiens) (UniProt P10635). The assay is described as follows: Cytochrome panel assay with activity outcomes. The note with it: recombinant CYP, pro-luciferin dealkylation, luminescence, p450-cyp2d6.

This is a selection; strong and weak results do not stand in their true shares. Inconclusive results are not listed. Activity calls are given as the source filed them. Calls come from the whole dose curve; as a rule, active = well fitted curve in the direction sought with a large enough effect; inconclusive = small, poorly fitted or top-dose-only effect, or effect the other way; inactive = no such curve, though single readings can be large or run the other way.
% is set by controls: 0 for no effect and ±100 for the full control effect.

Sequence of UniProt P10635 (P10635 whole entry, looked up): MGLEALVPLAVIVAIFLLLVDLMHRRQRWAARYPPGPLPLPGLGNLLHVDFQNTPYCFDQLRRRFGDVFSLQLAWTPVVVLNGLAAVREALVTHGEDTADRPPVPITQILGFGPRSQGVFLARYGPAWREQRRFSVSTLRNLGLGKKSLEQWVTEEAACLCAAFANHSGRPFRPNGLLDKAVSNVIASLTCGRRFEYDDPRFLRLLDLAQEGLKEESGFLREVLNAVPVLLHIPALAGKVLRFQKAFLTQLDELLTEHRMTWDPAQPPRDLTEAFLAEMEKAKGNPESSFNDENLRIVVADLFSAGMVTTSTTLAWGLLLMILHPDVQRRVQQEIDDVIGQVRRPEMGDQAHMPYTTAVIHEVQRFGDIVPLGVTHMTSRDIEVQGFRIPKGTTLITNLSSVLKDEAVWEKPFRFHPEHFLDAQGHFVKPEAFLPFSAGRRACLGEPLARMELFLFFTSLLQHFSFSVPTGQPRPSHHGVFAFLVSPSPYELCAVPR

In the case of `CN1[C@@H]2CC[C@H]1CC(OC(=O)[C@@H](O)c1ccccc1)C2` (some centres not stated), the activity, negative = inhibition is, setting by setting: (at 11.4 µM (top of the series)) inactive: 4.09%; (at 25.6 µM (top of the series)) inactive: -4.37%.

For the origin of these results see PubChem BioAssay AID1851 (National Center for Advancing Translational Sciences (NCATS), 2009).
